Assay results taken from patent US10363239B2, “Method for inhibiting growth of cancer cells” (Pain Therapeutics, Inc., priority 2013, dated 2019).

Tested on: BxPC3 pancreatic cancer cell implants
Test: Xenograft tumor size study
Conditions: oral gavage twice daily at 1 and 10 mg/kg

In the case of `CN1CCC2(CC1)NCC(=O)N2Cc1ccccc1` [Compound C0105], the “Tumor size change from baseline” value is reported as “shrank tumors from their original baselines”.
